Entries after “also recorded” stand apart in the source; their conditions may differ. The source holds more than one record for some entries. The list is limited to them. No rule for the calls is given here. An entry can have further records. The records of an entry do not match, cause unknown; they may come from other doses, times, organisms or constructs than stated. Brackets tell where a record comes from. A, B and so on number the origins entry by entry. Brackets with × say how often a value occurs here.
Test system: CCRIS mutagenicity, Ames/micronucleus/aberration tests
Assay: CCRIS mutagenicity studies
[1] = Test System: AMES SALMONELLA TYPHIMURIUM, Strain/Indicator: TA100, Metabolic Activation: NONE, Method: PREINCUBATION
[2] = Test System: AMES SALMONELLA TYPHIMURIUM, Strain/Indicator: TA98, Metabolic Activation: NONE, Method: STANDARD PLATE
[3] = Test System: AMES SALMONELLA TYPHIMURIUM, Strain/Indicator: TA100, Metabolic Activation: NONE, Method: STANDARD PLATE

O=C(O)C1C(C(=O)O)C2(Cl)C(Cl)=C(Cl)C1(Cl)C2(Cl)Cl (stereo not drawn)
mutagenic call (End Point: IN VITRO CHROMOSOMAL ABERRATIONS, Test System: CHINESE HAMSTER LUNG FIBROBLAST CELLS (CHL/IU), Metabolic Activation: NONE): inactive; negative; authors describe results as weakly positive at 24 hr; also recorded: inactive; negative | mutagenic call (End Point: IN VITRO CHROMOSOMAL ABERRATIONS, Test System: CHO CELLS, Metabolic Activation: NONE): inactive; negative and active; positive | mutagenic call (End Point: IN VITRO CHROMOSOMAL ABERRATIONS, Test System: CHO CELLS, Metabolic Activation: RAT, LIVER, S-9, AROCLOR 1254): inactive; negative and active; positive

COC1=C(N)C(=O)c2nc(-c3nc(C(=O)O)c(C)c(-c4ccc(OC)c(OC)c4O)c3N)ccc2C1=O
mutagenic call (End Point: IN VITRO CHROMOSOMAL ABERRATIONS, Test System: CHE CELLS, Metabolic Activation: NONE, Method: FISH): active; positive (structural changes) and active; positive (dicentrics, fragments)

Nc1ccccc1N
mutagenic call (Test System: AMES SALMONELLA TYPHIMURIUM, Strain/Indicator: TA100, Metabolic Activation: RAT, LIVER, S-9, AROCLOR 1254, Method: PREINCUBATION): inactive; negative [study A] and active; positive [study B] | mutagenic call (Test System: AMES SALMONELLA TYPHIMURIUM, Strain/Indicator: TA100, Metabolic Activation: RAT, LIVER, S-9, AROCLOR 1254, Method: STANDARD PLATE): inactive; negative [study A] and active; positive [study B] | mutagenic call (Test System: E.COLI, Strain/Indicator: WP2UVRA, Metabolic Activation: RAT LIVER S-9, PHENOBARBITAL AND BETA-NAPHTHOFLAVONE, Method: PREINCUBATION): inactive; negative and active; positive

C=CC(C)=O
mutagenic call [1]: active; positive [study A] and inactive; negative [study B]

O=NN(CCO)CCO
mutagenic call (Test System: AMES SALMONELLA TYPHIMURIUM, Strain/Indicator: TA100, Metabolic Activation: HAMSTER, LIVER, S-9, POLYCHLORINATED BIPHENYLS, Method: PREINCUBATION): active; positive and inactive; negative | mutagenic call [1]: inactive; negative (2×) [study A] and active; positive [study B] | mutagenic call (Test System: AMES SALMONELLA TYPHIMURIUM, Strain/Indicator: TA100, Metabolic Activation: RAT, LIVER, S-9, POLYCHLORINATED BIPHENYLS, Method: PREINCUBATION): active; positive and inactive; negative

Cc1c2ccccc2c(C)c2c1ccc1ccccc12
mutagenic call [2]: active; positive [study A] and inactive; negative [study B] | mutagenic call [3]: active; positive [study A] and inactive; negative [study B]

CC(=O)CN(CC(C)O)N=O (stereo not drawn)
mutagenic call [1]: inactive; negative [study A] and active; positive [study B] and active; positive [study C]

CC(=O)CC(=O)Nc1ccccc1
mutagenic call (End Point: In vitro chromosomal aberrations, Test System: Chinese hamster lung (CHL/IU) cells, Metabolic Activation: None): inactive; negative (2×); also recorded: inactive; negative. toxicity at 2 highest doses

C=CCNc1ccccc1.C=CCNc1ccccc1.C=CCNc1ccccc1.[Cl-].[Cl-].[Rh].[Rh]
mutagenic call [2]: active; positive and inactive; negative | mutagenic call [3]: active; positive and inactive; negative | mutagenic call (Test System: AMES SALMONELLA TYPHIMURIUM, Strain/Indicator: TA2410, Metabolic Activation: NONE, Method: STANDARD PLATE): active; positive and inactive; negative

CC1CNCC(C)O1 (stereo not drawn)
mutagenic call (Test System: AMES SALMONELLA TYPHIMURIUM, Strain/Indicator: TA1535, Metabolic Activation: HAMSTER, LIVER, S-9, AROCLOR 1254, Method: PREINCUBATION): active; positive [333.3 to 10000 µg/plate] and inactive; negative [3333 to 33333 µg/plate] | mutagenic call (Test System: AMES SALMONELLA TYPHIMURIUM, Strain/Indicator: TA1535, Metabolic Activation: NONE, Method: PREINCUBATION): inactive; negative [100 to 10000 µg/plate] and active; positive [333.3 to 10000 µg/plate] | mutagenic call (Test System: AMES SALMONELLA TYPHIMURIUM, Strain/Indicator: TA1535, Metabolic Activation: RAT, LIVER, S-9, AROCLOR 1254, Method: PREINCUBATION): active; positive [333.3 to 10000 µg/plate] and inactive; negative [3333 to 33333 µg/plate]

Nc1cc([N+](=O)[O-])ccc1O
mutagenic call (Test System: AMES SALMONELLA TYPHIMURIUM, Strain/Indicator: TA100, Metabolic Activation: HAMSTER, LIVER, S-9, AROCLOR 1254 (10%), Method: PREINCUBATION): inactive; negative (2×) and active; positive | mutagenic call (Test System: AMES SALMONELLA TYPHIMURIUM, Strain/Indicator: TA100, Metabolic Activation: HAMSTER, LIVER, S-9, AROCLOR 1254, Method: PREINCUBATION): active; positive [33 to 1000 µg/plate] and inactive; negative [33 to 3333 µg/plate]

From PubChem BioAssay AID1259407 (Chemical Carcinogenesis Research Information System (CCRIS), 2018)
